In PubChem BioAssay AID1347073 (National Center for Advancing Translational Sciences (NCATS), 2019):
The campaign covered roughly 45,000 compounds. About 200 (0.44%) were called active. About 7% were inconclusive and are not listed. The call rests on the fitted dose curve; in most records, active means well fitted activation curve with a large enough effect; inconclusive means small, poorly fitted or top-dose-only effect; inactive means no such curve, though single readings can be large or run the other way. Some of the results follow.

Test: qHTS of TDP-43 Inhibitors: NCGC Sytravon Library Screen; further: 0% is about no effect; nearly all actives have a fitted effect of over 55% in size
Conditions: yeast TDP-43 toxicity rescue, BacTiter-Glo growth, 24 h; series mostly up to 46.1 µM; growth rescue (activation): at the top concentration
In short: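 TDP-43-expressing yeast, pregrown in raffinose, seeded at OD600 0.02 in galactose medium with compound for 24 hr at 30 deg C. Growth read by BacTiter-Glo luminescence, so rescue of toxicity appears as activation.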

Row | SMILES | growth rescue (activation)
1 | CCn1c(SCC(=O)Nc2ccc(N3CCOCC3)cc2)nnc1-c1ccncc1 | inactive: 1.57%
2 | Cc1cccc(C)c1NC(=O)CN1C(=O)N(C)Cc2ccccc21 | inactive: 1.52%
3 | CCc1nc2c(OCCOc3ccc(F)cc3)cccn2c1N(C=O)Cc1ccccc1 | inactive: -15.2%
4 | CC(=O)c1cccc(NC(=O)C2CCCN(S(=O)(=O)c3cccc4nonc34)C2)c1 (stereo not given) | inactive: 3.19%
5 | CCN1CCCC1CN(Cc1cc2ccc(C)cc2[nH]c1=O)C(=S)Nc1ccccc1OC (stereo not given) | inactive: 5.95%
6 | Cc1nnc(SCc2c(Cl)cccc2Cl)n(N)c1=O | inactive: 15.6%
7 | COc1cccc(CN(C)Cc2c(O)ccc3ccccc23)c1 | inactive: -16.3%
8 | Nc1nnc(Cc2ccccc2F)s1 | inactive: 15.3%
9 | Cn1c(=O)c([N+](=O)[O-])c(NCc2ccccc2)c2ccccc21 | inactive: -35.4%
10 | CCC1CCCCN1C(=S)NC(=O)c1cccs1 (stereo not given) | inactive: 2.77%
11 | Cc1ccc(CN2CCC(C(=O)Nc3ccc(Oc4cccnc4)cc3)CC2)cc1 | inactive: 4.91%
12 | COC(=O)Nc1nnc(-c2ccco2)s1 | inactive: 0.949%
13 | O=C(Nc1cccc([N+](=O)[O-])c1)N1CCN(c2ccccc2)CC1 | inactive: 0.53%
14 | CCOc1ccccc1NC(=O)CN1CCN(C(=O)C2CCCO2)CC1 (stereo not given) | inactive: 6.79%
15 | CN1CCCN(Cc2nc(-c3cccc(C(F)(F)F)c3)no2)CC1 | inactive: -7.9%
16 | CSc1nc2ncc(C#N)cn2n1 | inactive: -6.4%
17 | COc1cccc(C(NC(C)=O)c2nc(-c3ccccc3OC)cs2)c1 (stereo not given) | inactive: 4.29%
18 | C=CCNC(=O)c1c(C(F)(F)F)nn(C)c1Cl | inactive: -4.42%
19 | O=C(CCc1ccccc1)NNC(=O)Cc1ccc(Cl)cc1 | inactive: 13.9%
20 | CCCS(=O)(=O)NC(=O)C1(C)CCN(C(=O)c2cc(-c3cccs3)oc2C)C1 (stereo not given) | inactive: 7.66%
21 | COC(=O)Nc1c(C(=O)OC)cc(OC)c(OC)c1OC | inactive: -5.67%
22 | COc1cnc(-c2ccccn2)nc1NC(C)C | inactive: 3.28%
23 | CCOc1cc(C2C(C(C)=O)=C(O)C(=O)N2CCc2c[nH]c3ccccc23)ccc1O (stereo not given) | inactive: -1.51%
24 | Cc1cccc(NC(=S)NCCN2CCOCC2)c1 | inactive: 17.3%

Row | SMILES | growth rescue (activation)
25 | Cc1nc2c(OCc3ccccc3)cccn2c1N(C)C(=O)C1CCCCC1 | inactive: 5.13%
26 | Cc1ccc(-n2c(=S)[nH]c3[nH]ncc3c2=O)cc1 | inactive: -0.846%
27 | COc1ccc2cc(C(=O)NCc3ccccc3)[nH]c2c1 | inactive: 7.15%
28 | COc1ccccc1CNC(=O)CN1C(=O)NC2(CCCCCC2)C1=O | inactive: 3.96%
29 | CN(C(=O)COc1ccc(S(=O)(=O)N2CCOCC2)cc1[N+](=O)[O-])C1CCS(=O)(=O)C1 (stereo not given) | inactive: 30.5%
30 | CCOC(=O)NN1C(=O)c2ccccc2NC1c1ccccc1O (stereo not given) | inactive: 9.16%
31 | Cc1cc2ncn(CCC(=O)NC3CCCC3)c2cc1C | inactive: -4.91%
32 | CCOP(=O)(OCC)C(NC(=O)c1ccc(OC)c(OC)c1)c1ccccc1 (stereo not given) | inactive: 0.423%
33 | CC(=O)Nc1ccc(Nc2nc3ccc(Cl)cc3n3cnnc23)cc1 | inactive: 5.02%
34 | CC1(C)CC(CNCCC(c2ccc(F)cc2)c2ccco2)CCO1 (stereo not given) | inactive: 1.96%
35 | Fc1ccccc1-n1ncc2c1ncn1nc(COc3ccc(Cl)cc3)nc21 | inactive: 2.9%
36 | CN1CCN(C(=O)c2cc(S(=O)(=O)Nc3ccccc3F)c(Cl)cc2Cl)CC1 | inactive: -28.4%
37 | Cc1ccc(C(=O)c2cn[nH]c2-c2ccccc2O)cc1 | inactive: 9.31%
38 | CC(=O)c1ccc2c(c1)C1C=CCC1C(C(=O)O)N2 (stereo not given) | inactive: 6.7%
39 | COc1ccc(OC)c(C(=O)c2ccc(C(=O)Nc3ccc(NC(C)=O)cc3)cc2)c1 | inactive: 18.5%
40 | COc1ccc(C2c3[nH]c4ccccc4c3CCN2CCCn2cccn2)c(F)c1 (stereo not given) | inactive: 16.2%
41 | OCC(O)CSc1nc(-c2ccccc2)nc2c1CCC2 (stereo not given) | inactive: 5.41%
42 | CN(Cc1ccccc1)C(=O)C1CCCN1S(=O)(=O)c1ccc2c(c1)n(C)c(=O)c(=O)n2C (stereo not given) | inactive: 14.5%
43 | O=C(c1cc(Cl)ccc1[N+](=O)[O-])n1cnc2ccccc21 | inactive: 30.6%
44 | COCCNC(=O)c1ccc(Cl)c(S(=O)(=O)Nc2cccc(C)c2C)c1 | inactive: 11.7%
45 | NS(=O)(=O)c1ccc(NC(=O)Cn2nc(C(=O)O)c3ccccc3c2=O)cc1 | inactive: -5.28%
46 | O=C(C1CCCN(S(=O)(=O)c2ccc(F)cc2)C1)N1CCOCC1 (stereo not given) | inactive: -0.899%
47 | CC1(C(=O)NS(=O)(=O)c2cccs2)CCN1C(=O)c1cccc(F)c1 (stereo not given) | inactive: 5.41%
48 | Cc1sc2nc(SCC(=O)Nc3cccc(C(=O)O)c3)[nH]c(=O)c2c1C | inactive: -9.27%

Row | SMILES | growth rescue (activation)
49 | COc1cc(C(=S)N2CCOCC2)cc(OC)c1O | inactive: 28.7%
50 | O=C(Nc1cccc(Cl)c1)C1=CC=CN2CCS(=O)(=O)N=C12 | inactive: -3.55%
51 | COCC(=O)N/N=C/c1c(C)[nH]n(-c2ccccc2)c1=O | inactive: -13.3%
52 | COc1ccc(NCc2nnc(SCC(=O)Nc3ccc(OC)cc3)n2C)cc1 | inactive: -3.57%
53 | Nc1nonc1-n1nnc(C(=O)N/N=C/c2cccc(Cl)c2Cl)c1CN1CCCC1 | inactive: 18.1%
54 | COc1ccc(CNC(=O)CN(C)S(=O)(=O)c2ccccc2)cc1 | inactive: 9.09%
55 | Cn1ccc(C(=O)OCC(=O)Nc2ccccc2)n1 | inactive: -16.9%
56 | CC1CC(C)CN(S(=O)(=O)c2ccc(C(=O)N(c3ccccn3)C3CCCCC3)cc2)C1 (stereo not given) | inactive: 25.6%
57 | CCCCC(=O)Nc1ccc2c3c(cccc13)CC2 | inactive: 14.9%
58 | CC(C)CC(=O)NS(=O)(=O)c1ccc(NS(C)(=O)=O)cc1 | inactive: 15.2%
59 | O=C(C1CCN(S(=O)(=O)N2CCOCC2)CC1)N1CCN(c2ccccc2)CC1 | inactive: 26.8%
60 | COc1cc(C(=O)Oc2ccccc2/C=N/NC(=O)c2ccc(C)cc2)cc(OC)c1OC | inactive: -6.53%
61 | O=C1c2ccccc2C(=O)N1Cc1ccccn1 | inactive: 0.485%
62 | COc1ccc(NC(=O)COC(=O)CC23CC4CC(CC(C4)C2)C3)c([N+](=O)[O-])c1 | inactive: -8.78%
63 | COc1ccc(C(CC(=O)c2ccccc2)CC(=O)c2ccccc2)cc1OC | inactive: 0.265%
64 | Nc1nc(SCc2ccc(Br)cc2)[nH]c(=O)c1-c1ccccc1 | inactive: -16.5%
65 | CC(C)[C@H](NC(=O)c1ccccc1)C(=O)OCC(=O)Nc1sccc1C(N)=O | inactive: 6.04%
66 | O=C(NC(Cc1c[nH]c2ccccc12)C(=O)O)c1ccc(F)cc1 (stereo not given) | inactive: 6.95%
67 | CC(=O)Nc1ccc(NC(=O)CNC(=O)c2cccc(C)c2)cc1 | inactive: -7.49%
68 | CCN(C(=O)CN1C(=O)NC(c2ccccc2)(c2ccccc2)C1=O)c1ccccc1 | inactive: 22.2%
69 | CSCC[C@H](NC(=O)Cc1c(C)c2c(cc(C)c3c(C)coc32)oc1=O)C(=O)O | inactive: 8.15%
70 | Cc1ccc2nc(SCC(=O)Nc3ccc4[nH]c(=O)[nH]c4c3)[nH]c2c1 | inactive: 32.5%
